Test [1] deals with T1, Human IL7Ra-IL2Rγ-Fc heterodimer (human, biotin on the avi tag).
T1 construct: Extracellular domains of IL-7Ralpha and IL-2Rgamma fused to Fc knob and Fc hole; also called hu IL7Ra-IL2Rγ-Fc avi biotin; human IL7Ra-IL2Rg-Fc biotin
Briefly: SPR, captured via anti-P329G. Here is the method:
SPR experiments were performed on a Biacore 8 K with HBS-EP + 1 mg/ml BSA as running buffer. Anti-P329G Fc specific antibody (Roche internal) was directly immobilized by amine coupling on a C1 chip (Cytiva). The PD1-IL7 constructs were captured for 140 s at 5 nM. […] The dissociation phase was monitored for 800 s and triggered by switching from the sample solution to running buffer. The chip surface was regenerated after every cycle using two injections of 10 mM glycine pH 2 for 60 sec. Bulk refractive index differences were corrected for by subtracting the response obtained on the reference flow cell (containing immobilized anti P329G Fc specific IgG only). The affinity constants were derived from the kinetic rate constants by fitting to a 1:1 Langmuir binding using the Biacore evaluation software (Cytiva).
Four IL7 single variants, two IL7 double variants and IL7 wild-type were compared to four reference molecules with modified IL7 for binding to human IL7 receptor (Table 23). The affinity of the IL7 variants to the IL7 receptor was determined using the recombinant heterodimer of the extracellular domains of the IL7 receptor alpha chain and the common IL2 receptor gamma chain.

Test [2] deals with T2, IL-7Rα/IL-2Rγ on human T cells (human, UniProt P16871 21-459; P31785 23-369).
T2 sequence (looked up) 1: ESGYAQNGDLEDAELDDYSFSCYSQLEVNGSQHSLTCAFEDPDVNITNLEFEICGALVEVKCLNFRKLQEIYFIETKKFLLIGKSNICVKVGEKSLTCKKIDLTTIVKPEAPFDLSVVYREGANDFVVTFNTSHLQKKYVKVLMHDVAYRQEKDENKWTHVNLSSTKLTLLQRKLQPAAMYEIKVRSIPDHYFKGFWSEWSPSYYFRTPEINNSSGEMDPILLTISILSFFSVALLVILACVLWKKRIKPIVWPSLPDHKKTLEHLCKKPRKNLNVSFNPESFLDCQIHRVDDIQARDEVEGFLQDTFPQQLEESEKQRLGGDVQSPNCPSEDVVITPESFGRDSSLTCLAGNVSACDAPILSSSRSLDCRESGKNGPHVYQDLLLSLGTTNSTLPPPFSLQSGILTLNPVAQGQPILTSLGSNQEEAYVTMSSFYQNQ
T2 sequence (looked up) 2: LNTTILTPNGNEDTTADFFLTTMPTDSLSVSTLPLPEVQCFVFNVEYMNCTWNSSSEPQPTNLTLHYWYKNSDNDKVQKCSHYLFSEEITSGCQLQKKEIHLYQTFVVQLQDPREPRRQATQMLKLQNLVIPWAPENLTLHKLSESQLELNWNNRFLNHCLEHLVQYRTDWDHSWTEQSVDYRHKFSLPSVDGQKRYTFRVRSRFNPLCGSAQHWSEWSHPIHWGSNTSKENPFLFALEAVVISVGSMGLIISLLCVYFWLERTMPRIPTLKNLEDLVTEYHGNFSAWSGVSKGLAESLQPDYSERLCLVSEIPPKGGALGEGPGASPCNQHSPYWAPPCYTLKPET
Briefly: cell-based or functional assay.

For test [3], the target named is T2, IL-7Rα/IL-2Rγ on human T cells. Briefly: cell-based or functional assay. The source holds these as a separate data set.
The target in test [4] is T3, human PD-1 on T cells (human, UniProt Q15116 25-288). Briefly: cell-based or functional assay.
The target of test [5] is T2, IL-7Rα/IL-2Rγ on human T cells. Briefly: cell-based or functional assay. The source holds these as a separate data set.
For test [6], the target named is T3, human PD-1 on T cells. The test can be described thus: cell-based or functional assay. The source holds these as a separate data set.
T3 sequence (Q15116 25-288 limits assumed): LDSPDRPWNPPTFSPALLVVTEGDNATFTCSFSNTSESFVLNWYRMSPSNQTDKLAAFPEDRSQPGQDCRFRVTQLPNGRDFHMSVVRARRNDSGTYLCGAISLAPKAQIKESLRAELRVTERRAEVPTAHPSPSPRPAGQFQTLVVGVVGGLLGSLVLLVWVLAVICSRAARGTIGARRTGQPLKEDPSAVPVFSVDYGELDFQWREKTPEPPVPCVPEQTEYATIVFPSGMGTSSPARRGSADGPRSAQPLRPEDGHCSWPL
Test [7] concerns the target T2, IL-7Rα/IL-2Rγ on human T cells. Briefly: cell-based or functional assay. This is another data set of the same source.

Like-named read-outs stand apart in the source and are kept apart here.

B1: Reference Molecule 7 (other)
light: DIVMTQSPDSLAVSLGERATINCKASESVDTSDNSFIHWYQQKPGQSPKLLIYRSSTLESGVPDRFSGSGSGTDFTLTISSLQAEDVAVYYCQQNYDVPWTFGQGTKVEIKRTVAAPSVFIFPPSDEQLKSGTASVVCLLNNFYPREAKVQWKVDNALQSGNSQESVTEQDSKDSTYSLSSTLTLSKADYEKHKVYACEVTHQGLSSPVTKSFNRGEC
heavy 1: EVQLLESGGGLVQPGGSLRLSCAASGFSFSSYTMSWVRQAPGKGLEWVATISGGGRDIYYPDSVKGRFTISRDNSKNTLYLQMNSLRAEDTAVYYCVLLTGRVYFALDSWGQGTLVTVSSASTKGPSVFPLAPSSKSTSGGTAALGCLVKDYFPEPVTVSWNSGALTSGVHTFPAVLQSSGLYSLSSVVTVPSSSLGTQTYICNVNHKPSNTKVDKKVEPKSCDKTHTCPPCPAPEAAGGPSVFLFPPKPKDTLMISRTPEVTCVVVDVSHEDPEVKFNWYVDGVEVHNAKTKPREEQYNSTYRVVSVLTVLHQDWLNGKEYKCKVSNKALGAPIEKTISKAKGQPREPQVCTLPPSRDELTKNQVSLSCAVKGFYPSDIAVEWESNGQPENNYKTTPPVLDSDGSFFLVSKLTVDKSRWQQGNVFSCSVMHEALHNHYTQKSLSLSPGK
heavy 2: EVQLLESGGGLVQPGGSLRLSCAASGFSFSSYTMSWVRQAPGKGLEWVATISGGGRDIYYPDSVKGRFTISRDNSKNTLYLQMNSLRAEDTAVYYCVLLTGRVYFALDSWGQGTLVTVSSASTKGPSVFPLAPSSKSTSGGTAALGCLVKDYFPEPVTVSWNSGALTSGVHTFPAVLQSSGLYSLSSVVTVPSSSLGTQTYICNVNHKPSNTKVDKKV[human IgG1 Fc with changes left out]GGGGSGGGGSGGGGSDCDIEGKDGKQYESVLMVSIDQLLDSMKEIGSNSLNNEFNFFKRHISDANKEGMFLFRAARKLRQFLKMNSTGDFDLHLLKVSEGTTILLNSTGQVKGRKPAALGEAQPTKSLEENKSLKEQKKLNDLSFLKRLLQEIKTCWNKILMGTKEH
notes: Format as m1; IL-7 SS3 (C47S/C92S, C34S/C129S); also called P1AF9649-012
Regarding B1, the binding result in test [1] is “no binding (tested: 2.34 to 300 nM receptor-Fc)”. Further, in test [2], the “STAT5-P Area (PD1+)” value turned out to be 9 and the “STAT5-P Area (PD1 blocked)” value was 1.5.

B2: Reference Molecule 2 (other)
light: DVVMTQSPLSLPVTLGQPASISCRSSQSLVHANTNTYLEWYQQRPGQSPRLLIYKVSNRFSGVPDRFSGSGSGTDFTLKISRVEAEDVGVYYCFQGTHVPNTFGQGTKLEIKRTVAAPSVFIFPPSDEQLKSGTASVVCLLNNFYPREAKVQWKVDNALQSGNSQESVTEQDSKDSTYSLSSTLTLSKADYEKHKVYACEVTHQGLSSPVTKSFNRGEC
heavy: QIQLVQSGSELKKPGASVKVSCKASGYTFTHYAMNWVRQAPGQGLEWMGWINTNTGEPTYAQGFTGRFVFSLDTSVSTAYLQISSLKAEDTAVYYCAREREPGMDNWGQGTLVTVSS[human IgG1 constant region with changes left out]GGGGSGGGGSGGGGSDSDIEGKDGKQYESVLMVSIDQLLDSMKEIGSNCLNNEFNFFKRHISDANKEGMFLFRAARKLRQFLKMNSTGDFDLHLLKVSEGTTILLNSTGQVKGRKPAALGEAQPTKSLEENKSLKEQKKLNDLCFLKRLLQEIKTSWNKILMGTKEH
With B2, in test [3], the “STAT5-P Area (PD1+)” value stood at 45.1 and the “STAT5-P Area (PD1 blocked)” value was 15.4. Also, in the test with human PD-1 on T cells [4], the “STAT5-P activity, PD-1 pre-blocked versus PD-1+ T cells” value was > 12 fold. In test [5], the “EC50[active] / EC50 [active PD1-IL7wt]” value amounted to 39.8 fold, the “EC50[fresh]/EC50 [fresh PD1-IL7wt]” value was 135 fold, the “STAT5-P AUC [active]” value amounted to 84.5 and the “STAT5-P AUC [fresh]” value amounted to 176. In the test with human PD-1 on T cells [6], the “EC50 [PD1blocked]/ EC50 [PD1+]” value turned out to be 11.6 fold. Besides, in test [7], the “EC50 [PD1+]/ EC50[PD1-IL7wt]” value is 33.5 fold, the “STAT5-P AUC PD1+” value was determined as 59.6 and the “STAT5-P AUC PD1 blocked” value stood at 22.9.
